Source: PubChem BioAssay AID1030 (National Center for Advancing Translational Sciences (NCATS), 2008)
Hit rate of the full screen: of about 220,000 compounds, about 16,000 (7.3%) were called active. This list was built around the results that the source calls inconclusive (neither active nor inactive); the mix of calls is not that of the screen. Calls come from the whole dose curve; as a rule, active = well fitted inhibition curve with a large enough effect (not every such curve was filed as active); inconclusive = small, poorly fitted or top-dose-only effect, or another doubt; inactive = no such curve, though single readings can be large or run the other way. Potencies of inconclusive entries are left out as doubtful fits.

Target: Aldehyde dehydrogenase 1A1 (Homo sapiens) (UniProt P00352)
Sequence of UniProt P00352 (P00352 whole entry, looked up): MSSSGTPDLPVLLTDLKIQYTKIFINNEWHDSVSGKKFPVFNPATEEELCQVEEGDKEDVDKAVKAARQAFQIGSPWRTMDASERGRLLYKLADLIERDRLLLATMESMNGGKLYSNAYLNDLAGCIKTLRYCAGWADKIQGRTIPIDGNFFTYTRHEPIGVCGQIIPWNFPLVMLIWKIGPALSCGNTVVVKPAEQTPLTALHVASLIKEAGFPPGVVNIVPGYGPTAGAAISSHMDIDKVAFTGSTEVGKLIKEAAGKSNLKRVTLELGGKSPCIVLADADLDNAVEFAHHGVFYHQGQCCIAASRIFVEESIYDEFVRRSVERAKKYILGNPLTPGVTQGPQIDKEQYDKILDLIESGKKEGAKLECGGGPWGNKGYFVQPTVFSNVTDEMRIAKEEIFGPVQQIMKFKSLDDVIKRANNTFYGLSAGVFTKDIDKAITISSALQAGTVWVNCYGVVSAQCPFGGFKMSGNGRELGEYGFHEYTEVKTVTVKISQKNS
Experiment: qHTS Assay for Inhibitors of Aldehyde Dehydrogenase 1 (ALDH1A1)
Conditions: Purified ALDH1A1, NADH fluorescence, propionaldehyde substrate; series mostly up to 75.3 µM
Potency is the fitted concentration of half-maximal effect; tags give direction and shape of the fitted curve.

Q: Which Potency does the source give for `COc1ccc2c(Cl)c(-c3nnco3)sc2c1` here?
A: The Potency was inconclusive [inhibitor, single point].

Q: How did the Potency turn out when `O=C(CSCC(=O)N1CCN(c2ccccc2)CC1)Nc1nc(-c2ccc(Cl)s2)cs1` was run?
A: Its Potency is inconclusive [inhibitor, single point].

Q: With `Cc1ccc(Nc2c(F)c(F)c(F)c(F)c2C(=O)O)c(C)c1` as the compound, how does the Potency read?
A: Its Potency is “inactive”.

Q: `O=S(=O)(c1ccc2ncn(O)c2c1)N1CCOCC1` was tested. Which Potency did it give?
A: The Potency was “inactive”.

Q: With `COc1ccc(-c2noc(CSc3ccc(C)cc3)n2)cc1` as the compound, how does the Potency read?
A: The Potency was inconclusive [inhibitor, single point].

Q: How did the Potency turn out when `O=C(c1ccccc1)c1ccc(OCCn2cnc3ccccc3c2=O)cc1` was run?
A: Its Potency is inconclusive [inhibitor, single point].

Q: `COc1ccc(C(=O)NC(=S)Nc2ccc3oc(=O)ccc3c2)cc1OC` was tested. Which Potency did it give?
A: Its Potency is “inactive”.

Q: How did the Potency turn out when `CCOC(=O)c1cc2sccc2n1CC(=O)N1CCCc2ccccc21` was run?
A: The Potency was “inactive”.

Q: With `COc1cc(O)oc1C=Nc1ccc(Oc2ccccc2)cc1` as the compound, how does the Potency read?
A: Its Potency is inconclusive [inhibitor, single point].

Q: `O=C(Cc1ccccc1)n1nc(-c2ccco2)nc1SCc1ccccc1` was tested. Which Potency did it give?
A: Its Potency is inconclusive [inhibitor, single point].

Q: For `COc1cccc(C(=O)N2CCN(Cc3ccccc3C(F)(F)F)CC2)c1`, which Potency is on record?
A: Its Potency is inconclusive [inhibitor, single point].

Q: How did the Potency turn out when `CCC1=NN(C(=O)C(=O)Nc2ccc(OC)cc2)C(O)(C(F)(F)F)C1` (configuration not stated) was run?
A: Its Potency is inconclusive [inhibitor, single point].

Q: Which Potency does the source give for `CN(CC1COc2ccccc2O1)C(=O)c1ccc(N(C)C)cc1` (configuration not stated) here?
A: Its Potency is active: 5.62 µM.

Q: How did the Potency turn out when `CCOC(=O)N1CCN(c2cc3[nH]c(=S)[nH]c3cc2F)CC1` was run?
A: Its Potency is inconclusive [inhibitor, single point].

Q: `COc1ccc(N2C(=O)C3CCCN3C2c2ccccc2Cl)cc1` (configuration not stated) was tested. Which Potency did it give?
A: Its Potency is active: 10 µM.

Q: Which Potency does the source give for `O=C(CNC(=O)C1CCCCC1)Nc1cc(Cl)cc(Cl)c1` here?
A: Its Potency is inconclusive [inhibitor, single point].

Q: How did the Potency turn out when `Cc1ccc(Nc2nnc(SCC(=O)NC3CCCc4ccccc43)s2)cc1` (configuration not stated) was run?
A: Its Potency is “inactive”.

Q: Which Potency does the source give for `O=C(COC(=O)c1ccccc1NC(=O)c1ccco1)NC1CCS(=O)(=O)C1` (configuration not stated) here?
A: Its Potency is “inactive”.

Q: Which Potency does the source give for `COc1cccc(C(=O)Oc2cc(N)n(S(=O)(=O)c3ccc(C)cc3)n2)c1OC` here?
A: The Potency was inconclusive [inhibitor, partial curve].

Q: With `Cc1cc(C(=O)NNc2ccc(F)cc2)no1` as the compound, how does the Potency read?
A: The Potency was inconclusive [inhibitor, single point].

Q: `Cc1nn(CC(=O)NCc2ccc(C(=O)O)cc2)c(C)c1[N+](=O)[O-]` was tested. Which Potency did it give?
A: Its Potency is “inactive”.

Q: Which Potency does the source give for `COC(=O)C1=C(C)NC(=O)/C1=C\c1cc(C)n(-c2ccccc2C)c1C` here?
A: The Potency was inconclusive [inhibitor, single point].

Q: Which Potency does the source give for `Cc1nn(-c2ccc(F)cc2)c(Cl)c1/C=N/NC(=O)c1ccc(O)cc1` here?
A: The Potency was “inactive”.

Q: For `O=C1NC(c2ccccc2)=C(c2nc3ccccc3s2)C(c2ccc(O)cc2)N1` (configuration not stated), which Potency is on record?
A: Its Potency is inconclusive [inhibitor, partial curve].

Q: `O=C(O)CN1C(=O)/C(=C/C=C/c2ccccc2)SC1=S` was tested. Which Potency did it give?
A: The Potency was inconclusive [inhibitor, single point].

Q: `COCCCNC(=O)CN(C1CCCCC1)S(=O)(=O)c1ccc(C)cc1` was tested. Which Potency did it give?
A: Its Potency is active: 14.1 µM.

Q: How did the Potency turn out when `Cc1ccc(C(=O)C2C(c3cccs3)NC(=O)NC2(O)C(F)(F)F)cc1` (configuration not stated) was run?
A: Its Potency is inconclusive [inhibitor, single point].

Q: For `O=C1CCCc2c1nc(-c1cccc(Cl)c1)n2O`, which Potency is on record?
A: Its Potency is inconclusive [inhibitor, partial curve].

Q: For `CC(NC(=O)c1ccnc(C(C)(C)C)c1)c1ccccc1` (configuration not stated), which Potency is on record?
A: The Potency was “inactive”.

Q: For `CCC(O)CNc1nc(-n2nc(C)cc2C)nc2sc3c(c12)CC(C)(C)OC3` (configuration not stated), which Potency is on record?
A: The Potency was inconclusive [inhibitor, single point].

Q: How did the Potency turn out when `COCCCNC(=O)c1cc(C(=O)Cc2ccccc2)c[nH]1` was run?
A: The Potency was inconclusive [inhibitor, single point].

Q: `Cc1ccc(-n2c(=O)c3sccc3n(CC(=O)NCc3ccco3)c2=O)cc1F` was tested. Which Potency did it give?
A: Its Potency is inconclusive [inhibitor, single point].

Q: How did the Potency turn out when `CCSc1nc(-c2ccc(OC)cc2)n(-c2nc3ccccc3s2)n1` was run?
A: Its Potency is inconclusive [inhibitor, single point].

Q: How did the Potency turn out when `Cc1ccccc1OCC(=O)OCC(=O)c1ccc(OC(=O)c2ccccc2)cc1` was run?
A: Its Potency is “inactive”.

Q: Which Potency does the source give for `C/C(N)=C(/C#N)C(=O)COC(=O)c1cc(S(=O)(=O)N2CCCCC2)ccc1C` here?
A: The Potency was “inactive”.

Q: How did the Potency turn out when `COC(=O)Nc1sc2c(c1C(=O)NCc1ccco1)CCC2` was run?
A: The Potency was inconclusive [inhibitor, partial curve, poor fit].

Q: `CCCCN(C(=S)NC(=O)c1cc(OC)c(OC)c(OC)c1)c1c(N)n(Cc2ccccc2)c(=O)[nH]c1=O` was tested. Which Potency did it give?
A: Its Potency is “inactive”.

Q: `Cc1ccccc1N1OC2C(=O)N(c3ccc(F)cc3)C(=O)C2C1c1ccccn1` (configuration not stated) was tested. Which Potency did it give?
A: Its Potency is “inactive”.

Q: How did the Potency turn out when `COc1ccccc1NS(=O)(=O)c1cccs1` was run?
A: The Potency was inconclusive [inhibitor, single point].

Q: With `O=c1cc(COc2ccccc2[N+](=O)[O-])nc2sccn12` as the compound, how does the Potency read?
A: The Potency was inconclusive [inhibitor, partial curve].

Q: For `O=C(c1ccco1)N(Cc1cccc([N+](=O)[O-])c1)c1ccc(Br)cc1`, which Potency is on record?
A: Its Potency is active: 22.4 µM.

Q: How did the Potency turn out when `COCCCNC(=O)CN(c1cccc(Cl)c1)S(C)(=O)=O` was run?
A: Its Potency is active: 2 µM.

Q: How did the Potency turn out when `COc1ccc(/C=C(\C#N)C(=O)OCC(=O)NCc2ccccc2Cl)cc1` was run?
A: The Potency was inconclusive [inhibitor, single point].

Q: With `COc1ccc2cc(C#N)c(SCC(=O)N3CCCC3)nc2c1` as the compound, how does the Potency read?
A: Its Potency is inconclusive [inhibitor, single point].

Q: With `Cc1c(C(=O)OCC(=O)Nc2c(C)n(C)n(-c3ccccc3)c2=O)cccc1[N+](=O)[O-]` as the compound, how does the Potency read?
A: Its Potency is “inactive”.

Q: Which Potency does the source give for `CCOc1ccc2nc(Nc3nc4ccc(NC(C)=O)cc4s3)sc2c1` here?
A: Its Potency is inconclusive [inhibitor, single point].

Q: For `CC(=O)c1cccc(NC(=O)Nc2ccc(C(=O)N3CCCC3)cc2)c1`, which Potency is on record?
A: The Potency was active: 14.1 µM.
